Measured values published in PubChem BioAssay AID504332 (National Center for Advancing Translational Sciences (NCATS), 2011).
Out of some 350,000 compounds screened, about 31,000 (8.9%) were called active. Inconclusive results, whose numbers are uncertain, are shown with a selection of clear calls. Calls come from the whole dose curve; as a rule, active = well fitted inhibition curve with a large enough effect; inconclusive = small, poorly fitted or top-dose-only effect; inactive = no such curve, though single readings can be large or run the other way. Where the call is inconclusive, the potency comes from a doubtful curve fit.

target: Histone-lysine N-methyltransferase EHMT2 (Homo sapiens) (UniProt Q96KQ7); experiment: qHTS Assay for Inhibitors of Histone Lysine Methyltransferase G9a; conditions: G9a H3K9 monomethylation, AlphaScreen, 2 h; activity, negative = inhibition: at 59 µM (top of the series) unless noted; note: nearly all actives have a fitted effect of over 75% in size
Chain of UniProt Q96KQ7 (Q96KQ7 whole entry, looked up): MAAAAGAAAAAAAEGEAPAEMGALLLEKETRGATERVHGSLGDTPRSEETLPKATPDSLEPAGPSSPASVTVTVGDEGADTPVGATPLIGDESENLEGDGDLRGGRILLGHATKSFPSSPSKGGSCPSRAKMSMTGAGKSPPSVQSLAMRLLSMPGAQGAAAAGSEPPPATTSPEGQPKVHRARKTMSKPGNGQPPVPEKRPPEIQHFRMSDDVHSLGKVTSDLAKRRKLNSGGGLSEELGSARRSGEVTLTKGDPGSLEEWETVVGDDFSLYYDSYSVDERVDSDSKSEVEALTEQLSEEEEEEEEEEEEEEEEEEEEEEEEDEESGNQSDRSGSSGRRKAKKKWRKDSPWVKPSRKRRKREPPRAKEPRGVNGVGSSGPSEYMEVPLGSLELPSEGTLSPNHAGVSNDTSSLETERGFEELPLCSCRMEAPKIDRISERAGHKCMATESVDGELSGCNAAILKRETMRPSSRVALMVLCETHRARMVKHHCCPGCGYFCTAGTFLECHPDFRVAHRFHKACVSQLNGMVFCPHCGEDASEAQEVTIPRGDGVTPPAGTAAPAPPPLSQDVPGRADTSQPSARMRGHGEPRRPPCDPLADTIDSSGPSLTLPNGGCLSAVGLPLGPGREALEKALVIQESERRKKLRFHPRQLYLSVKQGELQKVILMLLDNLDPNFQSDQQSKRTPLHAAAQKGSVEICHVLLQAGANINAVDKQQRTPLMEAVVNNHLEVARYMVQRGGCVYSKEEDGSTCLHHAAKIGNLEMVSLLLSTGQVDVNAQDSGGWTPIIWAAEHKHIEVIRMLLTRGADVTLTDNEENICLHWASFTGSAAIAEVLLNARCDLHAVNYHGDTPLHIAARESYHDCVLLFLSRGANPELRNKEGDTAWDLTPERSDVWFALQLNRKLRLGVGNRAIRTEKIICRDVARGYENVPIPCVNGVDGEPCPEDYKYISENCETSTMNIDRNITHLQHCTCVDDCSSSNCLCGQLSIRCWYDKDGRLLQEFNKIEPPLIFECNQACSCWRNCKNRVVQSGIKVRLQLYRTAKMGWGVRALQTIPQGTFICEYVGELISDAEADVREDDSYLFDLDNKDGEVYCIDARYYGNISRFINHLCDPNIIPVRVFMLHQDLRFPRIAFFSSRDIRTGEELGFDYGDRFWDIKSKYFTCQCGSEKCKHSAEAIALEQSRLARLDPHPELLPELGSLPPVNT
Method in brief: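 Step 1: enzyme (final 20 nM) with compound, 15 min RT. Step 2: substrate peptide 500 nM and SAM 20 uM, 2 h RT. Step 3: anti-H3K9me1 antibody and AlphaScreen beads, 10 min, then plate read.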
% is set by controls: 0 for no effect and ±100 for the full control effect; potency is the fitted concentration of half-maximal effect; tags give direction and shape of the fitted curve.

| SMILES | activity, negative = inhibition | Potency |
| --- | --- | --- |
| Cc1ccc(-c2cn3c(n2)sc2cc(C(=O)NCc4cccs4)ccc23)cc1 | inactive: -8.47% | – |
| COc1cccc(N2CCN(CC(=O)NC(=O)NCc3ccco3)CC2)c1 | inactive: -42.7% [at 102 µM] | – |
| CC(C)(C)SCCNC(=O)CN(c1ccccc1)S(=O)(=O)c1ccc(F)cc1 | inactive: 2.31% [at 102 µM] | – |
| CCN(CC)c1ccc(Nc2nc(N3CCOCC3)c3ccccc3n2)cc1 | – | active: 2.24 µM |
| O=C(CO/N=C/c1ccccc1OC(F)F)N1CCc2ccccc21 | – | inconclusive: 25.1 µM [inhibitor, single point] |
| CC(/C=N\N1CCN(Cc2ccc(C)cc2)CC1)=C\c1ccccc1 | – | inconclusive: 3.16 µM [inhibitor, partial curve, poor fit] |
| CCc1ccc(CNC(=O)COc2cc(=O)n(CC)c3ccccc23)cc1 | – | inconclusive: 28.2 µM [inhibitor, single point] |
| Cc1cccc(C(=O)Nc2ccc(C(=O)N/N=C/c3cccnc3)cc2)c1 | inactive: -6.17% [at 102 µM] | – |
| Clc1ccc2c(c1)[C@H]1OCC[C@H]1[C@@H](c1ccco1)N2 | – | inconclusive: 22.4 µM [inhibitor, partial curve, poor fit] |
| COc1ccc(-c2nc(C)c(CCNC(=O)C(=O)Nc3ccccc3C#N)s2)cc1OC | inactive: 2.03% | – |
| Cc1ccc(-c2cc(-c3ccc4c(c3)OCO4)c(C#N)c(N)n2)o1 | – | inconclusive: 7.08 µM [inhibitor, full curve, poor fit] |
| Cc1sc2ncnc(Sc3ccccc3C(=O)Nc3ccccc3Cl)c2c1C | – | active: 3.55 µM |
| CN(C(=O)COC(=O)c1ccccc1SCC(=O)N1CCCC1)C1(C#N)CCCCC1 | inactive: -8.71% [at 12.7 µM] | – |
| CCC(=O)N1CCc2cc(S(=O)(=O)CCC(=O)Nc3ccc(CC)cc3)ccc21 | – | inconclusive: 89.1 µM [inhibitor, partial curve, poor fit] |
| COc1cc(NC(=O)CC(c2ccc(C)cc2)N2Cc3ccccc3C2=O)cc(OC)c1 (centres undefined) | – | inconclusive: 6.31 µM [inhibitor, single point] |
| Cc1cc(C(=O)NC2CCCc3c2cnn3-c2cccc(C)c2C)n(C)n1 (centres undefined) | inactive: 19.2% [at 102 µM] | – |
| CC1=C(C(=O)OCc2ccccc2)C(c2cccc(Cl)c2Cl)NC(=O)N1CCCCCC(=O)O (centres undefined) | – | inconclusive: 79.4 µM [inhibitor, single point] |
| CC1=CC(C)(C)n2c(O)c(N=NC(N)=S)c3c(C)c(C)cc1c32 | inconclusive: -102% [inhibitor] | – |
| Cc1cc(C)c2c(=O)n(CC(=O)N3CCC(N4CCCCC4)CC3)sc2n1 | – | active: 1 µM |
| C/C(=N\N)c1c(-c2ccccc2)c2cc(Br)ccc2[nH]c1=O | inactive: 0.552% [at 102 µM] | – |
| COC(=O)[C@@]1(Cc2ccccc2)[C@@H]2C(=CC(=O)[C@H]2CC(=O)C(=O)N(C)C)CN1C(=O)c1ccccc1 | – | inconclusive: 89.1 µM [inhibitor, single point] |
| O=S(=O)(N/N=C1/CCCc2ccccc21)c1ccc(Br)cc1 | – | inconclusive: 39.8 µM [inhibitor, single point] |
| Cc1ccc2c(CNCc3ccccc3)cc(=O)oc2c1 | – | inconclusive: 89.1 µM [inhibitor, single point] |

| SMILES | activity, negative = inhibition | Potency |
| --- | --- | --- |
| Cc1cc(C)cc(NC(=O)[C@H](NC(=O)[C@@H]2Cc3ccccc3CN2)c2ccccc2)c1 | – | active: 79.4 µM |
| CCc1ccccc1NC(=O)CSc1nnc([C@@H](N)Cc2ccccc2)o1 | – | inconclusive: 11.2 µM [inhibitor, partial curve, poor fit] |
| COc1ccc(/C=N/N2C(=N)SCC2=O)cc1 | – | inconclusive: 70.8 µM [inhibitor, partial curve, poor fit] |
| CCOc1ccccc1CNC(=O)Cn1ncn2nc(-c3cccs3)cc2c1=O | – | inconclusive: 25.1 µM [inhibitor, single point] |
| CCOC(=O)c1cnc2ccccc2c1Nc1cc(C(=O)O)ccc1C | – | active: 50.1 µM |
| Cc1ccc(C)c(CNC(=O)C2CCN(c3nc4ccccc4nc3C(F)(F)F)CC2)c1 | inactive: 10.5% | – |
| Cc1ccc(CCCOC(=O)C[N+]2(C)CCOCC2)cc1 | – | active: 10 µM |
| COc1ccc(-c2ccc(SCC(=O)N3CCCC3)nn2)cc1OC | – | inconclusive: 28.2 µM [inhibitor, single point] |
| COc1ccccc1/C=C/c1nc(S(=O)(=O)c2ccccc2)c(NCCN(C)C)o1 | – | inconclusive: 50.1 µM [inhibitor, partial curve, poor fit] |
| O=C(O)Cc1ccc(Nc2cnn(C34CC5CC(CC(CC(=O)O)(C5)C3)C4)c(=O)c2Cl)cc1 | inactive: -28.7% [at 102 µM] | – |
| NC(=O)[C@@H]1CCCNc2c(F)cc([N+](=O)[O-])cc2C(=O)N[C@@H](CCC(=O)O)C(=O)N[C@@H](CO)C(=O)N1 | – | active: 79.4 µM |
| CCN(CC)S(=O)(=O)c1ccc(NS(=O)(=O)c2ccc(OC)c([N+](=O)[O-])c2)cc1 | inactive: -22.1% [at 102 µM] | – |
| Cc1[nH]c2ccccc2c1/C=N/Nc1nc(Nc2ccc(F)cc2)nc(N2CCOCC2)n1 | – | inconclusive: 39.8 µM [inhibitor, single point] |
| O=C(Cc1ccc(S(=O)(=O)N2CCCC2)s1)Nc1nc2c(s1)CCCC2 | inconclusive: -64.6% [inhibitor] | – |
| CC(=O)Nc1ccc(S(=O)(=O)NCCC(=O)Nc2ncccc2C)cc1 | inactive: 10.3% [at 0.501 µM] | – |
| COc1ccccc1/C=C/C=N/n1c(C)nnc1C | – | inconclusive: 89.1 µM [inhibitor, partial curve, poor fit] |
| COc1ccc(CCNC(=O)c2cc(C)nc3c2c(C)nn3-c2ccc(C)cc2)cc1OC | inactive: -1.81% | – |
| CCOc1ccc(-n2nc3ccc(NC(=O)CC)cc3n2)cc1 | – | active: 35.5 µM |
| O=C(CN(C(=O)CCC(=O)Nc1ccccn1)c1ccc2c(c1)OCO2)NCc1ccc(F)cc1 | inactive: 10.9% [at 102 µM] | – |
| CCC(=O)N(Cc1cc2cc(OC)ccc2[nH]c1=O)c1ccc(C)cc1C | – | inconclusive: 79.4 µM [inhibitor, partial curve, poor fit] |
| Nc1[nH]ncc1N=Nc1ccc(Cl)cc1 | inactive: -15.4% [at 102 µM] | – |
| N#Cc1c(/N=C\c2ccc(O)c([N+](=O)[O-])c2)sc2c1CCCC2 | – | inconclusive: 50.1 µM [inhibitor, partial curve, poor fit] |
| Cc1coc2c(O)cc3c(c12)OC1(N2CCCCC2)C(=O)NCCCC31 (centres undefined) | – | active: 7.94 µM |

| SMILES | activity, negative = inhibition | Potency |
| --- | --- | --- |
| Oc1ccc(Br)cc1C=Nc1ccc2c3c(cccc13)CC2 | – | inconclusive: 20 µM [inhibitor, single point] |
| Cc1c(C#N)c(=O)c(-[n+]2ccccc2)c([S-])n1-c1ccc(Cl)cc1 | inconclusive: -57.2% [inhibitor] | – |
| O=C(O)c1cccc(N2C(=O)c3cccc4c(Cl)ccc(c34)C2=O)c1 | – | inconclusive: 56.2 µM [inhibitor, partial curve, poor fit] |
| O=C(Nc1ccccc1C(=O)NC1CC1)c1ccc([N+](=O)[O-])o1 | – | inconclusive: 50.1 µM [inhibitor, partial curve, poor fit] |
| O=C(N/N=C/c1ccc(N2CCOCC2)o1)c1cccc(C(F)(F)F)c1 | – | active: 8.91 µM |
| CCN(CC)CCCNC(=O)c1ccc2nc(N3CCCCC3)sc2c1 | inactive: -1.92% | – |
| Cn1c(CCN2CCCCC2)nc2cc(NS(=O)(=O)c3ccccc3)ccc21 | – | inconclusive: 70.8 µM [inhibitor, partial curve, poor fit] |
| CCOc1ccc(N(CC(=O)NC2CCCC2)C(=O)Cn2nnc(-c3ccc(C)o3)n2)cc1 | – | inconclusive: 79.4 µM [inhibitor, single point] |
| COc1ccc2nc(N(Cc3cccnc3)C(=O)C3COc4ccccc4O3)sc2c1 (centres undefined) | – | inconclusive: 1.41 µM [inhibitor, partial curve, poor fit] |
| CCCc1cc(=O)[nH]c(SCC(=O)c2c(N)n(CC(C)C)c(=O)n(C)c2=O)n1 | inactive: -10.6% [at 102 µM] | – |
| CCOc1ccccc1CN1CCc2nc(N3CCN(c4ccccc4F)CC3)ncc2C1 | – | inconclusive: 39.8 µM [inhibitor, single point] |
| Cc1cc(C(=O)COC(=O)CCc2nc3ccccc3s2)c(C)n1C | – | inconclusive: 22.4 µM [inhibitor, single point] |
| C=CCNC1=C(Cl)C(=O)N(c2ccccc2Cl)C1=O | inactive: 23% [at 102 µM] | – |
| CCNC(=O)CC1C(=O)N(c2ccccc2)C(=O)N1CCOC (centres undefined) | inactive: -12.7% [at 102 µM] | – |
| CC1CCc2c(sc3ncnc(SCC(=O)Nc4ccc(C(=O)O)cc4)c23)C1 (centres undefined) | inactive: 9.27% [at 102 µM] | – |
| NC(=S)N/N=C/c1ccc(-c2ccccc2)o1 | – | active: 6.31 µM |
| CCOC(=O)C1CCCN(S(=O)(=O)c2ccc(-n3cnnn3)c(C)c2)C1 (centres undefined) | – | inconclusive: 0.708 µM [inhibitor, partial curve, poor fit] |
| C=C(C)/C=N/NC(=S)Nc1ccc(S(=O)(=O)N2CCOCC2)cc1 | – | inconclusive: 50.1 µM [inhibitor, partial curve, poor fit] |
| O=C(O)CCc1ccc(-c2ccccc2)n1NC(=O)c1cccs1 | – | inconclusive: 89.1 µM [inhibitor, partial curve, poor fit] |
| COc1cccc(C(=O)CC2(O)C(=O)Nc3ccc(Cl)cc32)c1 (centres undefined) | inactive: -28.2% | – |
| COc1ccc(-c2c(C(C)=O)c(C)n(C)c2C)cc1 | – | inconclusive: 89.1 µM [inhibitor, partial curve, poor fit] |
| CC1=CC2=NC(=O)/C(=C\c3cccn3CCOc3cc(C)ccc3C)C(=N)N2O1 | – | inconclusive: 28.2 µM [inhibitor, single point] |
| O=C(CN1/C(=C(/O)c2ccccc2)C(=O)c2ccccc2S1(=O)=O)c1ccccc1 | – | inconclusive: 79.4 µM [inhibitor, partial curve] |
